Measured values as given in PMC4336329 (PLoS ONE, 2015).
About 2,200 (0.71%) of roughly 310,000 compounds showed an effect of 50% or more. The effect is printed as a negative number. The list shows a part of the results.

target: human ether-à-go-go-related gene (hERG) potassium channel (human, UniProt Q12809); assay: primary screen, population patch clamp on CHO cells stably expressing hERG
Sequence (Q12809 whole entry, looked up): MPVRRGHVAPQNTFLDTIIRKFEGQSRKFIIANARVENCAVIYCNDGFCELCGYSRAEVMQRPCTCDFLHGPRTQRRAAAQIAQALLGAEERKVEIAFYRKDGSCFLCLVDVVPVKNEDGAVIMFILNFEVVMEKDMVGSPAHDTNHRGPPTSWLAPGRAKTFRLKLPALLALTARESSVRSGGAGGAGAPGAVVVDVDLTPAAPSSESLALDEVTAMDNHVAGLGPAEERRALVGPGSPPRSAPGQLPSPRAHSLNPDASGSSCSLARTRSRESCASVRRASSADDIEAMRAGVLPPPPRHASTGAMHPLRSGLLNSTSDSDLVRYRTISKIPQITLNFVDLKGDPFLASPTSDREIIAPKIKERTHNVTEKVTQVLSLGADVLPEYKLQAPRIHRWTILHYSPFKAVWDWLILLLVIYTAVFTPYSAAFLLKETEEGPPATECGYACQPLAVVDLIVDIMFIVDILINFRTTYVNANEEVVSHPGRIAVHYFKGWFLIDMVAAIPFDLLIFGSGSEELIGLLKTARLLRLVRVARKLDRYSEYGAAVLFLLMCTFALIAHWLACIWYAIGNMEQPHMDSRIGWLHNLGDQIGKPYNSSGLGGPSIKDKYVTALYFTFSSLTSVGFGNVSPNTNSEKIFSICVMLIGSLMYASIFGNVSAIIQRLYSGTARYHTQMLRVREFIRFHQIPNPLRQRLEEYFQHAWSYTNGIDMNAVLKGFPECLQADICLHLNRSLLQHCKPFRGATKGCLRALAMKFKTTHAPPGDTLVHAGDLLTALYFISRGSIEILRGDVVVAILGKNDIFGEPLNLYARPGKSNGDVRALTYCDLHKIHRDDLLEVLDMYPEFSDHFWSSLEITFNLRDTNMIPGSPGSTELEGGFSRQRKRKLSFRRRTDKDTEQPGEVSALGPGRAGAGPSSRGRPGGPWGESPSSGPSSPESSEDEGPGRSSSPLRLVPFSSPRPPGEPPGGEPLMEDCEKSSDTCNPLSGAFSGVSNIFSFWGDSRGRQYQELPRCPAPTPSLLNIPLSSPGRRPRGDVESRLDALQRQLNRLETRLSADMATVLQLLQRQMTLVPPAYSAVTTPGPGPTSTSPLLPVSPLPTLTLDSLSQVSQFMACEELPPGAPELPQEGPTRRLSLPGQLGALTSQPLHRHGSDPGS

Compound | hERG current change (%, negative = inhibition) at 1uM
Cc1ccc2cc(CCNC(=O)c3cc4ccccc4o3)c(=O)[nH]c2c1C | 13.2%
Cc1ccccc1N(C(=O)Cc1cccs1)C(C(=O)NC1CCCCC1)c1cn(C)nc1C (stereo not drawn) | -0.242%
CNS(=O)(=O)c1cn(CC(=O)NCc2ccc(N(C)C)cc2)cc1S(=O)(=O)NC | 5.9%
O=C(c1cc(F)ccc1F)C1CCCN(Cc2ccc3nonc3c2)C1 (stereo not drawn) | 5.51%
COC(=O)CN1C(=O)C(O)(CC(=O)c2ccc(C)o2)c2ccccc21 (stereo not drawn) | 14.6%
CCc1c(C)sc(NC(=O)Cc2ccccc2C)c1C(=O)N1CCOCC1 | 6.9%
O=C(CNS(=O)(=O)c1cccs1)NCCc1ccc(Cl)cc1 | 5.29%
CC(C)(C)c1ccc(OCC(=O)NNC(=O)Cc2cccs2)cc1 | 6.45%
CC(Oc1cccc(Cl)c1)C(=O)Nc1ccccc1N1CCCCC1 (stereo not drawn) | -1.02%
Cc1nnc(SCC(=O)NNC(=O)c2ccccc2)n1-c1ccccc1 | 9.38%
COc1ccc(C(=O)C2CN(C)CC2c2ccc(Cl)cc2)cc1 (stereo not drawn) | -18.3%
COc1ccccc1NC(=O)C1=C(C)Nc2ncnn2C1c1ccc(C)o1 (stereo not drawn) | 10.2%
Cc1ccc(NC(=S)N(CCCN2CCCC2)Cc2cccn2Cc2ccc(Cl)cc2)cc1Cl | 9.49%
COC(=O)c1ccc(COC(=O)c2ccccc2OC)cc1 | 1.26%
COc1cccc(N2CC(C(=O)Nc3nnc(SCC(=O)Nc4cc(C)on4)s3)CC2=O)c1 (stereo not drawn) | 12%
CCN(CC)S(=O)(=O)c1ccc2[nH]c(=O)c3ccccc3c2c1 | 9.43%
Fc1cccc(Cl)c1CSc1nnc(COc2cccc3cccnc23)o1 | 9.42%
CCOC(=O)C1C(c2ccccc2)NC(=S)NC1(C)O (stereo not drawn) | 7.56%
CCC(C)(C)c1ccc(OCCCC[n+]2ccc(C)cc2)c(C(C)(C)CC)c1.[Br-] | -34.5%
CCC(=O)NCCc1nc2ccccc2[nH]1 | 6.94%
O=C(NC1CC1)c1ccc(-n2cccc2)cc1 | 5.25%
COc1cc(/C=N/NC(=O)C(Cc2c[nH]c3ccccc23)NC(=O)OCC(C)C)cc([N+](=O)[O-])c1O (stereo not drawn) | 15.4%

Compound | hERG current change (%, negative = inhibition) at 1uM
CCS(=O)(=O)c1nnnn1-c1ccccc1S(C)(=O)=O | 13.1%
COc1cccc(C2CC(=O)Nc3cc4c(cc32)CCC4)c1 (stereo not drawn) | 8.33%
Cc1ccsc1C(=O)N[C@@H](C)c1nnc2ccccn12 | 5.07%
Cc1ccccc1/C=N/NC(=O)Cn1nnc(N)n1 | 2.13%
CCCC1(C(=O)O)NC(c2ccccc2O)C2C(=O)N(c3cccc(Cl)c3)C(=O)C21 (stereo not drawn) | 10.7%
COc1cccc(C2c3c(oc4ccc(F)cc4c3=O)C(=O)N2CCN2CCOCC2)c1OC (stereo not drawn) | 4.91%
Cc1ccc(-c2noc(CSc3nnc(Cc4ccccc4)n3-c3ccc(Cl)cc3)n2)cc1 | 14.9%
CN1CCN(C(=O)c2ccc3nc(-c4ccccc4)c(-c4ccccc4)nc3c2)CC1 | 7%
CN(C)CCOc1ccccc1-c1ccccc1.O=C(O)C(=O)O | 3.69%
Cc1cccc(C(=O)NC(=S)NCc2ccccc2)c1 | 12.4%
Cc1ccc(-c2n[nH]c(=S)n2/N=C/c2c(C)nn(-c3ccccc3)c2C)cc1 | -21%
CCc1nc(N)c(C#N)c(-c2ccccc2OC)c1C | 3.88%
CCOC(=O)N1N=C(C)CC1(O)c1ccc(Cl)cc1 (stereo not drawn) | 8.73%
O=C(O)C(O)(c1ccccc1)C1CCCCC1 (stereo not drawn) | -2.46%
CCc1ccc(OCC(=O)NC(NC(=S)Nc2ccc(C)cc2C)C(Cl)(Cl)Cl)cc1 (stereo not drawn) | 0.376%
CCOC(=O)Cc1csc(NC(=O)CC(C)(C)CC(=O)O)n1 | 9.7%
Cc1ccc(C)c(NC(=S)N2CCC(c3nc4ccccc4s3)CC2)c1 | 3.75%
Cc1ccc(Cn2c(=N)c(S(=O)(=O)c3ccc(Br)cc3)cc3c(=O)n4ccccc4nc32)cc1 | 26.5%
CC1(c2ccc(OCC#N)cc2)C=C(c2ccc(OCC#N)cc2)n2nc(C(F)(F)F)nc2N1 (stereo not drawn) | -10.7%
Cc1ccc(-c2noc(CNC(=O)COc3ccccc3C)n2)cc1 | 0.93%
O=C(O)c1cc([N+](=O)[O-])c(N2CCCC2)c([N+](=O)[O-])c1 | -2.79%
CC(C)C(=O)Nc1nnc(CSCc2ccccc2F)s1 | -7.85%

Compound | hERG current change (%, negative = inhibition) at 1uM
COc1ccc(CCNC(=O)C(C(=O)c2ccc(F)cc2)n2ccccc2=O)cc1OC (stereo not drawn) | 3.88%
Cc1ccc(NC(=O)Cn2nnc(C(=O)NCc3ccc(Cl)cc3)c2N)cc1F | 10.1%
C=C1C[C@@]23CCC4[C@@](C)(CCC[C@@]4(C)C(=O)OC)C2CC[C@]1(OC(C)=O)C3 (stereo partly drawn) | 8.87%
CN1C(=O)C(CC(=O)Nc2ccc(F)cc2)N(NC(=O)c2cccc(F)c2)C1=S (stereo not drawn) | 7.6%
O=C(N/N=C/c1ccc[nH]1)c1ccc2c(c1)OCO2 | 3.63%
N#CCCN(C(=O)CSc1nc2nc(-c3cccs3)cc(C(F)(F)F)c2c(=O)[nH]1)c1ccccc1 | 16.3%
Fc1cccc(CN2CCN3CCCC3C2C2CCCCC2)c1 (stereo not drawn) | 5.62%
CCOC(=O)c1cnc(Nc2nc3ccccc3o2)nc1CSC(=S)N1CCCCC1 | 12.6%
COc1cc(C(=O)NCCc2ccccc2)ccc1OCC(=O)N1CCOCC1 | 20.2%
CN(C)CC(=O)N1CCc2ccccc2C1.O=C(O)C(=O)O | 17.5%
CC(C)(C)NC(=O)CCn1nc(-c2ccc(Cl)cc2)c2ccccc2c1=O | 7.07%
CCOC(=O)C1CCN(C(=O)C2CCN(S(=O)(=O)N3CCCC3)CC2)CC1 | -32.9%
Cc1cc(-c2nnnn2-c2ccc(C(F)(F)F)cc2)no1 | -0.0584%
Cc1nn(-c2ccccc2)c(Cl)c1/C=N/NC(=O)CCNc1n[nH]c(=O)[nH]c1=O | 7.23%
O=C(NCC(O)c1ccccc1)Nc1cccs1 (stereo not drawn) | 14.3%
CC(=O)N1N=C(c2ccco2)CC1c1cccs1 (stereo not drawn) | 14.6%
COc1c2c(nc3occc13)C(CC=C(C)C)(OC)C(O)CC2 (stereo not drawn) | 13.1%
COc1ccc(CCC(=O)NCc2cn3ccc(C)cc3n2)cc1 | -3.05%
Cc1ccc(/C=C2\NC(=S)NC2=O)cc1[N+](=O)[O-] | 16.9%
COc1ccc(NC(=O)CCC(=O)OCc2ccc([N+](=O)[O-])cc2)cc1 | 6.84%
COc1ccc(NC(=S)Nc2ccc(S(=O)(=O)N3CCOCC3)cc2)c(OC)c1 | 12.8%
CCN(CC)c1ccc(-c2n[nH]c(=S)n2-c2ccccc2)cc1 | 10.5%

Compound | hERG current change (%, negative = inhibition) at 1uM
c1ccc(C2CCC(N3CCC(N4CCCCC4)CC3)CC2)cc1 (stereo not drawn) | 12.2%
CCOC(=O)c1cc(-c2ccccc2)n(CC(=O)Nc2ccc(OCC)cc2)c1C | 11.1%
CC(C)N(CCCNC(=O)Cn1ncc2c([nH]c3ccccc32)c1=O)Cc1ccccc1 | -12.1%
CCCc1cc(=O)[nH]c(SCC(=O)Nc2cccc(S(=O)(=O)N3CCCCC3)c2)n1 | -6.15%
Cc1ccc(S(=O)(=O)C(C)C(=O)NCCS(=O)(=O)c2ccc(Cl)cc2)cc1 (stereo not drawn) | 1.7%
CCCCn1nc(C(=O)N2CCc3ccccc32)c2ccccc2c1=O | -1.02%
O=C1CC(N2CCN(c3ccc(F)cc3)CC2)C(=O)N1c1ccc(F)cc1 (stereo not drawn) | 12.9%
COC(CNC(=O)c1ccc2c(c1)nc(C)n2-c1ccc(F)c(F)c1)OC | -12.1%
O=C(COc1ccccc1)NCC(=O)N/N=C/c1ccccc1 | 12.9%
COc1ccc(CN(C(=O)c2cnccn2)C(C(=O)NC(C)(C)C)c2cc(OC)c(OC)c(OC)c2)cc1 (stereo not drawn) | 0.745%
Cc1ccc(S(=O)(=O)N2CC(O)C2)cc1 | 20.1%
Cn1c(SCc2nc(-c3ccc(Cl)cc3)no2)nnc1-c1ccccc1 | 4.19%
N#Cc1c(C#N)c(-c2ccccc2)n(-c2ccc(C(=O)O)cc2)c1N | 9.65%
CNC(=S)/N=C/NOCc1c(Cl)cccc1Cl | 3.32%
CC(=O)Nc1ccc(S(=O)(=O)NC(C)c2nc(-c3ccccc3)no2)cc1 (stereo not drawn) | 11.5%
COc1ccc(NC(C)=O)cc1CNC(=O)COc1ccccc1C(=O)Nc1cccc(C)c1C | 6.29%
C=CCNC(=S)NNC(=O)c1cccc(Br)c1 | 19.2%
CCOC(=O)Cc1csc(NS(=O)(=O)c2ccc(NC(C)=O)cc2)n1 | 13.6%
Cc1ccc2c(c1)Oc1ccc(NC(=O)CCl)cc1C(=O)N2 | 9.67%
NS(=O)(=O)c1ccc(N=Nc2c(O)c(C(=O)O)cc3ccccc23)cc1 | 13.8%
Cc1ccc(C)c(NC(=O)c2nnn(Cc3ccccc3C)c2N)c1 | 19%
